Reference: PMC9911399, “Two distinct binding modes provide the RNA-binding protein RbFox with extraordinary sequence specificity”
Where a chain is given by its changes, count along the chain named. Some of the results follow.

B1: GCAUAUG (DNA:RNA)
RNA: GGGAGACCGGAAUUCAGAUUGUCCGCAUAUGUUAAAUCCCGUCGUAGCCACCA
DNA 1: CAATCTGAATTCCGGTCTCCC
DNA 2: TGGTGGCTACGACGGGATT
B2: GCAAGCC (DNA:RNA)
RNA: B1 RNA with U28A, A29G, U30C, G31C
DNA 1: CAATCTGAATTCCGGTCTCCC
DNA 2: TGGTGGCTACGACGGGATT
B3: CUGAUGA (DNA:RNA)
RNA: GGGAGACCGGAAUUCAGAUUGUCCCUGAUGAUUAAAUCCCGUCGUAGCCACCA
DNA 1: CAATCTGAATTCCGGTCTCCC
DNA 2: TGGTGGCTACGACGGGATT
B4: UUAUACC (DNA:RNA)
RNA: B1 RNA with G25U, C26U, U30C, G31C
DNA 1: CAATCTGAATTCCGGTCTCCC
DNA 2: TGGTGGCTACGACGGGATT
B5: AUAUUAA (DNA:RNA)
RNA: B3 RNA with C25A, G27A, A28U, G30A
DNA 1: CAATCTGAATTCCGGTCTCCC
DNA 2: TGGTGGCTACGACGGGATT
B6: CUUCUGC (DNA:RNA)
RNA: B3 RNA with G27U, A28C, A31C
DNA 1: CAATCTGAATTCCGGTCTCCC
DNA 2: TGGTGGCTACGACGGGATT
B7: CGAGCCC (DNA:RNA)
RNA: B3 RNA with U26G, G27A, A28G, U29C, G30C, A31C
DNA 1: CAATCTGAATTCCGGTCTCCC
DNA 2: TGGTGGCTACGACGGGATT
B8: ACGGGCU (DNA:RNA)
RNA: B3 RNA with C25A, U26C, A28G, U29G, G30C, A31U
DNA 1: CAATCTGAATTCCGGTCTCCC
DNA 2: TGGTGGCTACGACGGGATT
B9: CCUUCAG (DNA:RNA)
RNA: B1 RNA with G25C, A27U, A29C, U30A
DNA 1: CAATCTGAATTCCGGTCTCCC
DNA 2: TGGTGGCTACGACGGGATT
B10: GGAUUUA (DNA:RNA)
RNA: B1 RNA with C26G, A29U, G31A
DNA 1: CAATCTGAATTCCGGTCTCCC
DNA 2: TGGTGGCTACGACGGGATT
B11: AUAGAUA (DNA:RNA)
RNA: B1 RNA with G25A, C26U, U28G, G31A
DNA 1: CAATCTGAATTCCGGTCTCCC
DNA 2: TGGTGGCTACGACGGGATT
B12: ACUUCAC (DNA:RNA)
RNA: B1 RNA with G25A, A27U, A29C, U30A, G31C
DNA 1: CAATCTGAATTCCGGTCTCCC
DNA 2: TGGTGGCTACGACGGGATT
B13: UGUUCUU (DNA:RNA)
RNA: B1 RNA with G25U, C26G, A27U, A29C, G31U
DNA 1: CAATCTGAATTCCGGTCTCCC
DNA 2: TGGTGGCTACGACGGGATT
B14: CUUCGGA (DNA:RNA)
RNA: B3 RNA with G27U, A28C, U29G
DNA 1: CAATCTGAATTCCGGTCTCCC
DNA 2: TGGTGGCTACGACGGGATT
B15: CUCUGUG (DNA:RNA)
RNA: B1 RNA with G25C, C26U, A27C, A29G
DNA 1: CAATCTGAATTCCGGTCTCCC
DNA 2: TGGTGGCTACGACGGGATT
B16: ACUGGGA (DNA:RNA)
RNA: B3 RNA with C25A, U26C, G27U, A28G, U29G
DNA 1: CAATCTGAATTCCGGTCTCCC
DNA 2: TGGTGGCTACGACGGGATT
B17: GGUGCAA (DNA:RNA)
RNA: B3 RNA with C25G, U26G, G27U, A28G, U29C, G30A
DNA 1: CAATCTGAATTCCGGTCTCCC
DNA 2: TGGTGGCTACGACGGGATT
B18: GGCACGU (DNA:RNA)
RNA: B3 RNA with C25G, U26G, G27C, U29C, A31U
DNA 1: CAATCTGAATTCCGGTCTCCC
DNA 2: TGGTGGCTACGACGGGATT
B19: UUUAGGU (DNA:RNA)
RNA: B3 RNA with C25U, G27U, U29G, A31U
DNA 1: CAATCTGAATTCCGGTCTCCC
DNA 2: TGGTGGCTACGACGGGATT
B20: AAAGGCC (DNA:RNA)
RNA: B1 RNA with G25A, C26A, U28G, A29G, U30C, G31C
DNA 1: CAATCTGAATTCCGGTCTCCC
DNA 2: TGGTGGCTACGACGGGATT
B21: UUGCUUC (DNA:RNA)
RNA: B3 RNA with C25U, A28C, G30U, A31C
DNA 1: CAATCTGAATTCCGGTCTCCC
DNA 2: TGGTGGCTACGACGGGATT
B22: CUGUGAG (DNA:RNA)
RNA: B3 RNA with A28U, U29G, G30A, A31G
DNA 1: CAATCTGAATTCCGGTCTCCC
DNA 2: TGGTGGCTACGACGGGATT
B23: GGCGAAU (DNA:RNA)
RNA: B1 RNA with C26G, A27C, U28G, U30A, G31U
DNA 1: CAATCTGAATTCCGGTCTCCC
DNA 2: TGGTGGCTACGACGGGATT
B24: CUCGUUG (DNA:RNA)
RNA: B3 RNA with G27C, A28G, G30U, A31G
DNA 1: CAATCTGAATTCCGGTCTCCC
DNA 2: TGGTGGCTACGACGGGATT
B25: UUAAGCU (DNA:RNA)
RNA: B3 RNA with C25U, G27A, U29G, G30C, A31U
DNA 1: CAATCTGAATTCCGGTCTCCC
DNA 2: TGGTGGCTACGACGGGATT
B26: ACUCUCA (DNA:RNA)
RNA: B3 RNA with C25A, U26C, G27U, A28C, G30C
DNA 1: CAATCTGAATTCCGGTCTCCC
DNA 2: TGGTGGCTACGACGGGATT
B27: AGCUGGG (DNA:RNA)
RNA: B1 RNA with G25A, C26G, A27C, A29G, U30G
DNA 1: CAATCTGAATTCCGGTCTCCC
DNA 2: TGGTGGCTACGACGGGATT
B28: UAUCCGA (DNA:RNA)
RNA: B3 RNA with C25U, U26A, G27U, A28C, U29C
DNA 1: CAATCTGAATTCCGGTCTCCC
DNA 2: TGGTGGCTACGACGGGATT
B29: CUGUGCA (DNA:RNA)
RNA: B3 RNA with A28U, U29G, G30C
DNA 1: CAATCTGAATTCCGGTCTCCC
DNA 2: TGGTGGCTACGACGGGATT
B30: CAGUGUU (DNA:RNA)
RNA: B3 RNA with U26A, A28U, U29G, G30U, A31U
DNA 1: CAATCTGAATTCCGGTCTCCC
DNA 2: TGGTGGCTACGACGGGATT
B31: UGCCCUA (DNA:RNA)
RNA: B3 RNA with C25U, U26G, G27C, A28C, U29C, G30U
DNA 1: CAATCTGAATTCCGGTCTCCC
DNA 2: TGGTGGCTACGACGGGATT

target: T1, RBFOX1 RRM (Homo sapiens, UniProt Q9NWB1 109-208); assay: EMSA; HiTS-Eq, 1 nM pool, 10 min; buffer printed only for the single-RNA assays: 10 mM Tris pH 7.5, 150 mM NaCl, 3.4 mM EDTA, 0.001% NP-40, 30 C; settings: tags: His6 N-terminal (pET28a); label: 5' 32P
T1 sequence: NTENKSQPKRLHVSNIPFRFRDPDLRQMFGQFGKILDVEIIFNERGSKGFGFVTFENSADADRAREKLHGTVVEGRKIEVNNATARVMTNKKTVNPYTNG
Procedure, shortened: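 Purified RbFox RRM, wild type or mutant, was incubated for 10 min in 50 µL with 1 nM of a 5′-radiolabelled RNA pool carrying 7 randomized nucleotides, whose flanks were annealed to DNA oligonucleotides, over a series of increasing protein concentrations. Unbound RNA was resolved on 8% native PAGE, cut out, reverse-transcribed, barcoded by PCR and sequenced on an Illumina HiSeq 2500. Relative association constants were derived from changes in read counts for each RNA species versus the control reaction and normalised to the cognate motif.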

Binder	binding signal
B1	0.00982 KA relative to UGCAUGU
B2	0.00998 KA relative to UGCAUGU
B3	0.0162 KA relative to UGCAUGU
B4	0.00397 KA relative to UGCAUGU
B5	0.00122 KA relative to UGCAUGU
B6	0.0231 KA relative to UGCAUGU
B7	0.00653 KA relative to UGCAUGU
B8	0.0114 KA relative to UGCAUGU
B9	0.00838 KA relative to UGCAUGU
B10	0.0096 KA relative to UGCAUGU
B11	0.0024 KA relative to UGCAUGU
B12	0.000936 KA relative to UGCAUGU
B13	0.0179 KA relative to UGCAUGU
B14	0.00606 KA relative to UGCAUGU
B15	0.0157 KA relative to UGCAUGU
B16	0.0102 KA relative to UGCAUGU

Binder	binding signal
B17	0.0092 KA relative to UGCAUGU
B18	0.0321 KA relative to UGCAUGU
B19	0.0106 KA relative to UGCAUGU
B20	0.00783 KA relative to UGCAUGU
B21	0.0244 KA relative to UGCAUGU
B22	0.0142 KA relative to UGCAUGU
B23	0.0131 KA relative to UGCAUGU
B24	0.0187 KA relative to UGCAUGU
B25	0.0118 KA relative to UGCAUGU
B26	0.000381 KA relative to UGCAUGU
B27	0.0111 KA relative to UGCAUGU
B28	0.0109 KA relative to UGCAUGU
B29	0.0239 KA relative to UGCAUGU
B30	0.0107 KA relative to UGCAUGU
B31	0.0106 KA relative to UGCAUGU
